Among all 310,000 compounds or so, about 2,200 (0.71%) showed an effect of 50% or more. The effect is printed as a negative number. Some of the results follow.

In the assay the target is human ether-à-go-go-related gene (hERG) potassium channel (human, UniProt Q12809). Put plainly: primary screen, population patch clamp on CHO cells stably expressing hERG.
Chain of human ether-à-go-go-related gene (hERG) potassium channel (Q12809 whole entry, looked up): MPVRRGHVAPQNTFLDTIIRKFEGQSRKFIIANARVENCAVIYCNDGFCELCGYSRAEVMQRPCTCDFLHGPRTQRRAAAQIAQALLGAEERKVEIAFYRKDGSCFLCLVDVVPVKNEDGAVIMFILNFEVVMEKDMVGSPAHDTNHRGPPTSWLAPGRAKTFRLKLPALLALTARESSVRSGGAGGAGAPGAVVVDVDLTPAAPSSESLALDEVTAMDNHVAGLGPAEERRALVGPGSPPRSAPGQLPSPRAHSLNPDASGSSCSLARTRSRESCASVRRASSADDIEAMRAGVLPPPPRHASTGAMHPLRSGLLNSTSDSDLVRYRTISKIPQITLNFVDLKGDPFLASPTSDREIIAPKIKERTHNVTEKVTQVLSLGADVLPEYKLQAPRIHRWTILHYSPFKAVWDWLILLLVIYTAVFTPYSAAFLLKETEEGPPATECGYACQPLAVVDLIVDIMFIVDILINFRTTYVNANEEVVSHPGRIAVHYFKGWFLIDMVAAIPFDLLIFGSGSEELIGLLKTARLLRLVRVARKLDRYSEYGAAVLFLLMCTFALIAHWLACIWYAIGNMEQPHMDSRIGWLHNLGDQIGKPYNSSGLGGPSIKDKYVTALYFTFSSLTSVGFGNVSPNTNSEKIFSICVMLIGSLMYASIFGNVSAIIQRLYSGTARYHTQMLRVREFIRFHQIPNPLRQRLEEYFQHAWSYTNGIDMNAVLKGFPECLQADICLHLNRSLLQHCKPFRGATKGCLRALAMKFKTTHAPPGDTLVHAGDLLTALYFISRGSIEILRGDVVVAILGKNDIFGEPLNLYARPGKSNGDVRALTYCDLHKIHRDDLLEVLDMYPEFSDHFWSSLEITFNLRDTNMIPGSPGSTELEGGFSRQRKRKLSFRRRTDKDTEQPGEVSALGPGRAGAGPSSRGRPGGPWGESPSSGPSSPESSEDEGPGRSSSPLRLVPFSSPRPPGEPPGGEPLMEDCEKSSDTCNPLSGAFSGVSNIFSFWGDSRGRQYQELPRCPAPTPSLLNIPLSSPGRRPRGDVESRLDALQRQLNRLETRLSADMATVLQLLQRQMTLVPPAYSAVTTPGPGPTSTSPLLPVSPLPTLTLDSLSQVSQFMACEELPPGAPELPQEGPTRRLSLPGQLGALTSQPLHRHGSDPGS
As for `COCCN(Cc1ccccc1)C(=O)c1ccc(C(=O)c2ccccc2)cc1`, the “hERG current change (%, negative = inhibition) at 1uM” value turned out to be 2.46%. With `COc1ccccc1N1CCN(C(=O)C(Sc2ccccc2)c2ccccc2)CC1` (centres unmarked), the “hERG current change (%, negative = inhibition) at 1uM” value is listed as 8.54%.

`CSCCC(NC(=O)c1ccco1)C(=O)OCC(=O)N(Cc1ccccc1)C(C)(C)C` (centres unmarked): the “hERG current change (%, negative = inhibition) at 1uM” value was -12.5%. For the molecule `Cc1ccccc1CSCCNC(=S)Nc1ccccc1`, the “hERG current change (%, negative = inhibition) at 1uM” value is on record as 12.2%.

As for `CCc1nc(N2CCN(C(=O)c3ccco3)CC2)c2c3c(sc2n1)CCCC3`, the “hERG current change (%, negative = inhibition) at 1uM” value is on record as -1.27%. Regarding `Cc1ccccc1OCc1nnc2n1CC(C)S2` (centres unmarked), the “hERG current change (%, negative = inhibition) at 1uM” value turned out to be 9.36%.

Consider `O=C(COC(=O)C1CCN(S(=O)(=O)c2ccc3c(c2)OCCO3)CC1)Nc1cc(C(F)(F)F)ccc1Cl`, for which the “hERG current change (%, negative = inhibition) at 1uM” value is reported as 10.2%. As to `O=C(Nc1ccc2c(c1)OCO2)N1CCOCC1`, the “hERG current change (%, negative = inhibition) at 1uM” value is recorded as 4.95%. `O=C(c1cccc(C(F)(F)F)c1)N1CCOC12CCN(c1ncc(C(F)(F)F)cc1Cl)CC2`: the “hERG current change (%, negative = inhibition) at 1uM” value is 15.3%. For the molecule `CC1=N/C(=C\c2ccc(OC(C)C)cc2)C(=O)N1c1ccc(C(=O)O)cc1`, the “hERG current change (%, negative = inhibition) at 1uM” value stood at 8.07%. For `CC1(C)NC(=O)N(CCOCCOc2ccccc2-c2ccccc2)C1=O` the value was 7.58%; for `CC(=O)c1cc(CN2CCN(CCC(C)C)C(CCO)C2)cs1` (centres unmarked), 1.84%; for `CC1(CCC(=O)N2CCCC(N3CCN(c4ccc(F)cc4)CC3)C2)CC1` (centres unmarked), -37.2%. For `COc1ccc2c(c1)[C@H]1[C@H](CO2)[C@H](c2ccccc2)[C@]2(C)C(=O)Nc3cc(OC)c(OC)cc3C(=O)N12` the value was 11.2%; for `CCC(=O)C1CCCN(C(=O)CCc2nnc(C3(c4ccc(Cl)cc4)CCC3)o2)C1` (centres unmarked), -0.0774%. Turning to `Cc1cc(=O)[nH]c2cc(Cl)ccc12`, the “hERG current change (%, negative = inhibition) at 1uM” value stood at 16.2%.

`Cc1onc(-c2ccccc2)c1C(=O)N/N=C/c1cccc(O)c1`: the “hERG current change (%, negative = inhibition) at 1uM” value is given as 7.79%.

In the case of `CC(=O)c1cccc(NC(=O)Cn2cnc(S(=O)(=O)N3CCC(C)CC3)c2)c1`, the “hERG current change (%, negative = inhibition) at 1uM” value was determined as 9.44%. For `Cc1ccc(C(=O)CNc2cccc(Cl)c2)cc1` the value was 13.4%; for `COc1cc(NC(=S)NC(=O)c2ccc(C(C)(C)C)cc2)ccc1NC(=O)c1cccs1`, 18.4%. For the molecule `O=C(COC(=O)c1ccc(S(=O)(=O)C(F)F)cc1)NC(=O)NC1CCCCC1`, the “hERG current change (%, negative = inhibition) at 1uM” value is -13.2%. For `O=C(CNC(=O)COc1ccccc1)NCCc1ccccn1` the value was 11.2%; for `CC1CN(c2nc3c(c(=O)[nH]c(=O)n3C)n2Cc2ccccc2F)CC(C)O1` (centres unmarked), 2.17%. Take `COc1ccc(C(=O)NOCc2ccccc2)cc1`: the “hERG current change (%, negative = inhibition) at 1uM” value was determined as 6.6%. With `CC[C@@]12C(=O)N(c3cccc(Br)c3)C(=O)N1[C@H](c1ccc(F)cc1)[C@@H]1C(=O)N(C3CCCCC3)C(=O)[C@@H]12` the figure was 3.27%. Regarding `CCN(CC)c1ccc(NC(=O)CCNC(=O)c2ccco2)cc1`, the “hERG current change (%, negative = inhibition) at 1uM” value worked out at 13.8%. As for `Cc1ccnc(NC(=O)CCC(=O)N(CC(=O)NCc2ccc(F)cc2)Cc2ccco2)c1`, the “hERG current change (%, negative = inhibition) at 1uM” value is given as -2.79%. In the case of `CCCN1C(=O)c2cc(C(=O)O)ccc2C1O` (centres unmarked), the “hERG current change (%, negative = inhibition) at 1uM” value is 12.7%. For the molecule `CCO[C@@H]1OC(C(=O)NC2CC2)=C[C@H](c2ccc3c(c2)OCO3)[C@H]1CCCO`, the “hERG current change (%, negative = inhibition) at 1uM” value worked out at 16.5%. In the case of `COc1ccc(NC(=O)/C(C#N)=C/c2cccnc2)c(OC)c1`, the “hERG current change (%, negative = inhibition) at 1uM” value is listed as 15.8%. On to `O=C(O)CSc1nc2c(c(C(F)(F)F)n1)CCc1ccccc1-2`, for which the “hERG current change (%, negative = inhibition) at 1uM” value is reported as 16.2%. Consider `CCSc1nc(O)c(Cc2ccccc2)c(=O)[nH]1`, for which the “hERG current change (%, negative = inhibition) at 1uM” value turned out to be 1.39%. `COc1ccc(-c2nn(-c3ccccc3)cc2CNCc2cccnc2)c(F)c1`: the “hERG current change (%, negative = inhibition) at 1uM” value turned out to be 0.0314%.

For `CCOC(=O)NC(=O)/C(N=Nc1cccc(C(F)(F)F)c1)=C(\C)O`, the “hERG current change (%, negative = inhibition) at 1uM” value was found to be 7.38%. With `CN1CCN(S(=O)(=O)c2ccc3c(c2)OCCO3)CC1` the figure was 9.55%; with `COCc1cc(C)n(CC(=O)Nc2c(C)cccc2C)c(=O)c1C#N`, 6.18%; with `O=C(Nc1sc2c(c1C(=O)O)CCC2)c1ccccc1F`, -0.607%. Regarding `c1ccc2sc(N3CCN(Cc4nnnn4CC4CCCO4)CC3)nc2c1` (centres unmarked), the “hERG current change (%, negative = inhibition) at 1uM” value is -9.39%. For `CCc1nn(C(C)C(=O)N2CC(C)CC(C)C2)c(=O)c2cc3occc3n12` (centres unmarked) the value was 3.55%. For `Cc1cccc(C(=O)N2CCc3c([nH]c4ccccc34)C2CC(C)C)n1` (centres unmarked), the “hERG current change (%, negative = inhibition) at 1uM” value is 6.68%. For `O=C(CSc1nc2cc([N+](=O)[O-])ccc2n1-c1ccc(F)cc1)NC1CCS(=O)(=O)C1` (centres unmarked) the value was -2.32%; for `COc1ccc(C(=O)N2CC3(C)CC2CC(C)(C)C3)cc1` (centres unmarked), 11.7%. With `CCOc1ccc(-n2c(SCC(=O)Nc3cc(C(=O)O)ccc3Cl)nc3ccccc3c2=O)cc1` the figure was 20.5%; with `CCCC(=O)Nc1ccc(N2CCN(C(=O)c3ccccc3C)CC2)cc1`, 1.89%.

The record behind these values is PMC4336329 (PLoS ONE, 2015).
